From PubChem BioAssay AID1345083 (National Center for Advancing Translational Sciences (NCATS), 2018)
The campaign covered roughly 94,000 compounds. About 6,200 (6.6%) were called active. Inconclusive means that the source gave no clear call. Such entries were picked first, then a sample of the others. Calls come from the whole dose curve; as a rule, active = well fitted inhibition curve with a large enough effect; inconclusive = small, poorly fitted or top-dose-only effect; inactive = flat fitted curve, though single readings scatter. Potencies of inconclusive entries are doubtful fits and often do not repeat.

assay: Cytotoxic Profiling in HEK 293 Cell Line of Diverse Libraries Using Quantitative High-Throughput Screening; details: HEK 293 viability, ATP luminescence (CellTiter-Glo), 48-72 h; series mostly up to 115 µM; note: nearly all actives have a fitted effect of over 60% in size
In short: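 qHTS cytotoxicity; HEK 293, 250 cells/well; compound pinned; 48 or 72 hr, 37 degree Celsius, 5% CO2, 95% humidity; CellTiter-Glo, 10 min RT; luminescence (ATP).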
Potency is the fitted concentration of half-maximal effect; tags give direction and shape of the fitted curve.

Row | Compound | Potency
1 | Nc1nc(N2CCC3(CC2)NC(=O)CC3C(=O)O)c2[nH]cnc2n1 (stereo not given) | inactive
2 | O=C(c1ccc(C(F)(F)F)cc1)N1CCn2c(nn(-c3cccc(Cl)c3)c2=O)C1 | inconclusive: 56.2 µM [inhibitor, partial curve, poor fit]
3 | O=C(c1ccc(Cl)cc1)N1CCOCC2(C1)CN([S+](=O)([O-])c1ccccc1)C2 | inconclusive: 79.4 µM [inhibitor, partial curve, poor fit]
4 | Cc1nc(C)c(C(=O)N2CCC3(CC2)CC(N(Cc2ccccc2)C2CC2)CCO3)s1 (stereo not given) | inconclusive: 11.2 µM [inhibitor, full curve, poor fit]
5 | Cc1ccc(Cl)cc1NC(=O)Cn1c(C)cc2nc3n(c(=O)c21)CCCC3 | inconclusive: 31.6 µM [inhibitor, partial curve]
6 | Cn1c(=O)[nH]cc(CC(=O)N2CCOCC(O)C2)c1=O (stereo not given) | inactive
7 | COC[C@@H]1CN(C(=O)CCc2ccccc2)C[C@H]1C(N)=O | inactive
8 | CC(C)c1noc(-c2cn(C3CCN(C(=O)c4cccc5[nH]ccc45)C3)nn2)n1 (stereo not given) | inconclusive: 56.2 µM [inhibitor, partial curve, poor fit]
9 | Cc1cnc(NC(=O)c2ccc3c(c2)OCCN(CCC(C)C)C3)s1 | inconclusive: 15.8 µM [inhibitor, full curve, poor fit]
10 | Cc1ccc(-c2cccc(CN3CCCC3C(=O)NCc3ccccc3)c2)cc1Cl (stereo not given) | active: 50.1 µM
11 | CCn1c2ccccc2c2cc(C(=O)N3CCCCCCNC(=O)CC3)ccc21 | inconclusive: 50.1 µM [inhibitor, partial curve, poor fit]
12 | CCOc1ccccc1C(=O)NC1CCCN(c2cc(-c3ccc(Cl)cc3)[nH]n2)C1 (stereo not given) | active: 20 µM
13 | COc1ccc(CN2CCC3(CC2)C(=O)NCN3Cc2ccc(Cl)cc2)cc1 | active: 39.8 µM
14 | Cc1ccc(NC(=O)CN2C(=O)NC(c3ccc(Cl)cc3)C3=C2COC3=O)cc1Cl (stereo not given) | active: 31.6 µM
15 | O=C(NCCCN1CCCc2ccccc21)C1CCCCC(=O)N1Cc1ccccc1 (stereo not given) | inconclusive: 50.1 µM [inhibitor, partial curve, poor fit]
16 | COc1ccc(-c2nc(C3CC3)nc3c2CCN(Cc2ccccc2)CC3)cc1 | inconclusive: 63.1 µM [inhibitor, partial curve, poor fit]
17 | CC1=C[C@@H](CN2CCCC2)[C@H](C(C)C)C[C@H]1Cc1nnc(-c2ccc([N+](=O)[O-])cc2)o1 | active: 35.5 µM
18 | N#Cc1ccc(CN2CCCC3(CC(c4ccccn4)=NO3)C2)cc1 (stereo not given) | inconclusive: 112 µM [inhibitor, partial curve, poor fit]
19 | O=C(NCCc1ccccn1)C1CCCN(c2nc(-c3ccccc3)nc3c2CCC3)C1 (stereo not given) | inconclusive: 56.2 µM [inhibitor, partial curve, poor fit]
20 | OC1CCCN(c2ccc(-c3nc(-c4cccc(C(F)(F)F)c4)no3)cn2)C1 (stereo not given) | inconclusive: 15.8 µM [inhibitor, full curve, poor fit]
21 | Oc1ccc(-c2nc(C3CC3)nc3c2CN(Cc2cccc4ccccc24)CC3)cc1 | inconclusive: 31.6 µM [inhibitor, full curve, poor fit]
22 | Cc1noc(C)c1CC(=O)NCCc1noc(-c2cccnc2)n1 | inactive

Row | Compound | Potency
23 | O=C(NC[C@H]1Cn2c(-c3cccc(Cl)c3)cnc2CO1)Nc1ccccc1 | active: 100 µM
24 | CCN1c2cc(C(=O)Nc3ccc(C)c(F)c3)ccc2C(=O)N2CCCCCC21 (stereo not given) | inconclusive: 44.7 µM [inhibitor, partial curve, poor fit]
25 | NS(=O)(=O)c1ccc(CCNC(=O)c2nnn3c2COC(c2ccc(F)cc2)C3)cc1 (stereo not given) | inconclusive: 89.1 µM [inhibitor, single point]
26 | CNC(=O)[C@@H]1CN(C(=O)CCc2ccccc2OC)C[C@H]1CO | inactive
27 | CC1=C[C@@H](CNC(=O)CCCC(=O)O)[C@H](C(C)C)C[C@H]1Cc1nc2c(C)cccc2[nH]1 | inactive
28 | Cc1ccc(-c2nc(C)c(C(=O)Nc3ccc4c(c3)C(=O)N3CCC[C@H]3C(=O)N4)s2)cc1 | inconclusive: 79.4 µM [inhibitor, single point]
29 | CC(C)CNC(=O)c1nc(-c2ccc(Cl)cc2)c2cnccn12 | inconclusive: 31.6 µM [inhibitor, full curve, poor fit]
30 | CCN1C(=O)CCc2cc(NC(=O)c3ccc(F)cc3)ccc21 | active: 39.8 µM
31 | COc1ccc(C(=O)N[C@@H]2CCC[C@@H]2C(=O)NCCCOC(C)C)cn1 | inactive
32 | O=C(NC1CCN(c2cc(-c3ccc(F)cc3)[nH]n2)C1)c1ccccc1 (stereo not given) | inconclusive: 50.1 µM [inhibitor, partial curve, poor fit]
33 | NCc1ccccc1-c1cccc(Cl)c1 | inconclusive: 100 µM [inhibitor, partial curve, poor fit]
34 | COc1cccc(-c2ccc(C(=O)N3CCC(NC(=O)C(C)(C)C)CC3)cc2)c1 | inconclusive: 35.5 µM [inhibitor, partial curve, poor fit]
35 | O=C(c1nc(-c2ccc(F)cc2)c2ccccn12)N1CCN(c2ncccn2)CC1 | inconclusive: 79.4 µM [inhibitor, partial curve, poor fit]
36 | CC(C)c1noc([C@H]2C[C@@H]3NCCCCCCNC(=O)[C@@H]3C2)n1 | inactive
37 | CC(C)CCN1CCn2c(nn(-c3cccc(Cl)c3)c2=O)C1 | inconclusive: 56.2 µM [inhibitor, partial curve, poor fit]
38 | c1ccc2c(CN3CCn4c(nnc4-c4ccncc4)C3)cccc2c1 | inconclusive: 112 µM [inhibitor, single point]
39 | OCC1CN(Cc2cc(Br)ccc2F)CC12CCNCC2 (stereo not given) | inconclusive: 50.1 µM [inhibitor, partial curve, poor fit]
40 | CC(C)(C)OC(=O)N1CC(NCc2cccc(-c3cccs3)c2)C1 | inconclusive: 35.5 µM [inhibitor, full curve]
41 | c1ccc(-c2noc(-c3cncnc3NCc3cccs3)n2)cc1 | inactive
42 | CC(CCc1ccccc1)NC(=O)CC(c1cccc2c1OCO2)c1c[nH]c2ccccc12 (stereo not given) | inconclusive: 50.1 µM [inhibitor, partial curve, poor fit]
43 | COCC(=O)N1CCCN(Cc2cccnc2)c2ccccc21 | inconclusive: 89.1 µM [inhibitor, single point]
44 | CC(C)(C)C(=O)NC1CCN(Cc2cccc(-c3ccc(F)c(F)c3)c2)CC1 | inactive

Row | Compound | Potency
45 | COc1ccc(-c2ccnc3nc(CC(C)C)nn23)cc1 | inconclusive: 2.82 µM [inhibitor, full curve, poor fit]
46 | CCc1cccc(NC(=O)C2CCN(C(=O)c3ncn4c3COC(c3ccc(OC)cc3)C4)CC2)c1 (stereo not given) | inactive
47 | O=C(c1cccc(O)c1)N1CC=C(c2cnc3cnc(-c4ccccc4)cn23)CC1 | active: 100 µM
48 | CN(C)S(=O)(=O)N1CC(n2cnnc2C2CCCO2)C1 (stereo not given) | inactive
49 | O=C(NCCc1ccccn1)[C@@H]1C[C@@H](c2ccc(F)cc2)N(CCOc2ccccc2)C1 | inconclusive: 79.4 µM [inhibitor, partial curve]
50 | COc1ccccc1CC(=O)N1CCCc2ncc(C(=O)Nc3cccc(C(F)(F)F)c3)cc21 | active: 50.1 µM
51 | CCOc1ccc(CN2CCCCC23Cc2ccccc2CNC3=O)cc1 (stereo not given) | inconclusive: 63.1 µM [inhibitor, partial curve, poor fit]
52 | O=c1[nH]c(C2CCCN(Cc3cccnc3)C2)nn1-c1ccc(Cl)cc1 (stereo not given) | inconclusive: 89.1 µM [inhibitor, single point]
53 | COc1cccc(C(=O)N2CCC(N3C[C@H](O)C[C@H]3C(=O)N3CCN(c4ccccc4)CC3)CC2)c1 | inactive
54 | Cc1ccnc(NC(=O)C2c3ccccc3C(=O)N(CC(C)C)C23CCCC3)c1 (stereo not given) | inconclusive: 50.1 µM [inhibitor, partial curve, poor fit]
55 | COc1ccc(CN2CCN(c3cc(N(C)C)ncn3)CC2CCO)c(C)c1C (stereo not given) | inconclusive: 56.2 µM [inhibitor, partial curve, poor fit]
56 | O=C1COc2ccc(NCCc3ccccn3)nc2CN1Cc1ccc(C(F)(F)F)cc1 | inconclusive: 50.1 µM [inhibitor, partial curve, poor fit]
57 | COc1ccccc1CN(C)Cc1ccc(F)cc1 | inconclusive: 63.1 µM [inhibitor, full curve]
58 | CCc1noc([C@@H]2CC(F)(F)CN2C(=O)c2coc(C)n2)n1 | inactive
59 | Cc1ccc(NC(=O)N2Cc3[nH]cnc3C[C@H]2c2nc(-c3ccc(C)cc3)no2)cc1 | inconclusive: 100 µM [inhibitor, partial curve]
60 | CCc1noc(-c2cccn3c(CNC(=O)Cc4cccc(F)c4)nnc23)n1 | inactive
61 | COc1ccccc1C(=O)N1CCC2(C1)C(=O)N(C)c1ccccc12 (stereo not given) | inconclusive: 35.5 µM [inhibitor, full curve, poor fit]
62 | CC(=O)Nc1ccc(CN2CCC3(CC2)CC(=O)c2ccc(Cl)cc2O3)cc1 | active: 50.1 µM
63 | CCOc1ccc2c(n1)CCN(C(=O)C1CCC1)C2 | inactive
64 | COc1cccc(CCC(=O)N2CCCN(c3cc(-c4ccc(Cl)cc4)[nH]n3)CC2)c1 | inconclusive: 50.1 µM [inhibitor, partial curve, poor fit]
65 | COCCN1C(=O)[C@@H]2C[C@@H](CN2Cc2ccccc2F)Oc2ccccc21 | inconclusive: 50.1 µM [inhibitor, partial curve, poor fit]
